Key:
[1] = tested on: ovarian cancer cell line OVCAR-3; test: Flow cytometry (FACS) binding of antibodies to OVCAR-3 tumor cells; design: species or system human; conditions: FIG. 1B (vs Ch069707), FIG. 2 (vs Ch069463)
Experimental: The binding EC50 of the humanized antibodies on tumor cell were tested as follow. Human ovarian cancer cell line OVCAR-3(purchased from National Collection of Authenticated Cell Cultures) cell culture was maintained in vitro as independent monolayer cultures at 37° C. in an atmosphere of 5% CO2. The cells were harvested using trypsin-EDTA partial digestion followed by centrifugation at 1000 rpm for 5 minutes. The cell was resuspended in cold PBS and serial dilution of Ch069707 and CL069707-H1L1, CL069707-H1L2, CL069707-H2L1 and CL069707-H2L2 antibodies were added. Ch069707 antibody was a chimeric antibody. The variable regions were the same as those of CL069707, and the constant region was the same as human IgG1 constant regions (SEQ ID NO: 70 and SEQ ID NO: 71). The cell solutions were mixed, incubated at 4° C. and washed with cold PBS prior to addition of secondary antibody conjugates (for detection purposes). After incubation at 4° C., the cells were washed with PBS, and then subjected to flow cytometry (FACS) analysis.
The mouse Anti-CDH6 antibody CL069463 was humanized by the same method. CL069463-H1L1, CL069463-H2L2, CL069463-H2L3 had similar EC50 as Ch069463 on OVCAR-3 cell. Ch069463 antibody was a chimeric antibody. The variable regions were the same as those of CL069463, and the constant region was the same as human IgG1 constant regions (SEQ ID NO: 70 and SEQ ID NO: 71).

CDH9-ECD-His = biological target: T1, CDH9-ECD-His (Homo sapiens, UniProt Q9ULB4); test: ELISA binding to human CDH9-ECD-His; conditions: FIG. 3
T1 construct: His (C); purchased Acro Biosystems, Inc
T1 sequence (Q9ULB4 54-615 limits assumed): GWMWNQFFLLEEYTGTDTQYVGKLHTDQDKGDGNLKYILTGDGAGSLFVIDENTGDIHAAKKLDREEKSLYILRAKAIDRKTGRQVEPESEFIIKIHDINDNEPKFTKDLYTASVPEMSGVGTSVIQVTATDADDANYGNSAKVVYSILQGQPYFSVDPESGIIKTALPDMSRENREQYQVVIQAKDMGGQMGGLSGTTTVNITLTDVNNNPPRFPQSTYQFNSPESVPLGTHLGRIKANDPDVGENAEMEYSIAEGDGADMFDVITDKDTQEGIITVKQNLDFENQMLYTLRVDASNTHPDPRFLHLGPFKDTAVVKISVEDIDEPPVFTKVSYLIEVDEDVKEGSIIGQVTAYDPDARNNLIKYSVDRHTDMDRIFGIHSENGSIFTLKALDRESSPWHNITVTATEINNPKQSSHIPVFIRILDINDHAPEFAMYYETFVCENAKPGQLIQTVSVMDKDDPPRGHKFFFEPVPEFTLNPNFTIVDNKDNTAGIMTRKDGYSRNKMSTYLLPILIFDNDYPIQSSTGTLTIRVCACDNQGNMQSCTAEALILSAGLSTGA
Experimental: (§1) CDH9 and […] are the most closely related family members to CDH6. Binding of CL069707-H1L1 on human CDH6, CDH9 and CDH10 ECD domains were analyzed by ELISA Binding Assay. Human […], CDH9-ECD-His and CDH10-ECD-His antigens were obtained from Acro Biosystems, Inc. 100 μL of 1 μg/mL of the antigens diluted in PBS were added to 96 well plates and incubated in 4° C. overnight. The plates were washed 3 times with 300 μL of washing buffer. Then 100 μL/well of 1% BSA blocking reagent were added to the plates, and incubated at 37° C. for 1 h then the blocking reagent were discarded. A 3-fold serial dilution of CL069707-H1L1 was added to the plates and then incubated at 37° C. for 1 h. Then the plates were washed 3 times with 300 μL of washing buffer. 100 μL/well of HRP-conjugated anti-Human antibody diluted in 1% BSA were added to the plates and then incubated at 37° C. for 1 h. The plates were washed 3 times with 300 μL of washing buffer. 100 μL/well of TMB substrate were added to the plates and incubated for about 10 min in room temperature. Then the reaction was stopped with 100 μL/well of stopping solution. OD450 was read with a plate reader and the data were processed.

CDH10-ECD-His = biological target: T2, CDH10-ECD-His (Homo sapiens, UniProt Q9Y6N8); test: ELISA binding to human CDH10-ECD-His; conditions: FIG. 3
T2 construct: His (C); purchased Acro Biosystems, Inc
T2 sequence (Q9Y6N8 55-613 limits assumed): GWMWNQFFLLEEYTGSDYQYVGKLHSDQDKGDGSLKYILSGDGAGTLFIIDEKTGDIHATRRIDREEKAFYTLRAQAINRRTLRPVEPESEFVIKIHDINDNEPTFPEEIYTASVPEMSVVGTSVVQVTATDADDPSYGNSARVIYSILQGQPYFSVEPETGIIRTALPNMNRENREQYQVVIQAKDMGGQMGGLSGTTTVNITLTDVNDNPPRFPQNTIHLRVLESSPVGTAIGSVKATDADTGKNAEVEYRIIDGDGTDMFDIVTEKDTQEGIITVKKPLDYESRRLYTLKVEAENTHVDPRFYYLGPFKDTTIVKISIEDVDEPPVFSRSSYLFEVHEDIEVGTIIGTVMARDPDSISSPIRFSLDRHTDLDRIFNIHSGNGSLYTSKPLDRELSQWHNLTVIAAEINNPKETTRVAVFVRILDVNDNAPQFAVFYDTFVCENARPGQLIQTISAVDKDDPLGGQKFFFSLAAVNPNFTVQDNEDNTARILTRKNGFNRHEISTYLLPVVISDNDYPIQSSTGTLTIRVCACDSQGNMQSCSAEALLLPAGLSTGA
Experimental: as §1

B1: CL069707-H1L1: humanized antibody; heavy chain SEQ ID NO: 74, light chain SEQ ID NO: 76 (antibody)
heavy: EVQLVESGGGLVQPGGSLRLSCAASGFTFTTYAMNWVRQAPGKGLEWVARIRIKNNNYATYYADSVTDRFTISRDDSKNSLYLQMNSLKTEDTAVYYCVRPDYGNYGLAYWGQGTLVTVSS[left out - human IgG1 constant region]
light: DIQLTQSPSSLSASVGDRVTITCSASSSISSHYLHWYQQKPGKSPKLLIYRSFYLASGVPSRFSGSGSGTDFTLTISSLQPEDFATYYCQQDIVPLTFGQGTKLEIKRTVAAPSVFIFPPSDEQLKSGTASVVCLLNNFYPREAKVQWKVDNALQSGNSQESVTEQDSKDSTYSLSSTLTLSKADYEKHKVYACEVTHQGLSSPVTKSFNRGEC
modifications: CL069707-H1; CL069707-L1
- binding EC50 on OVCAR-3 cell compared with the chimeric antibody [1]: slightly lower EC50
- binding to CDH9-ECD-His (CDH9-ECD-His): does not bind
- binding to CDH10-ECD-His (CDH10-ECD-His): does not bind

Source: US20250090677A1, “ANTI-CDH6 ANTIBODIES AND ANTIBODY-DRUG CONJUGATES THEREOF” (MULTITUDE THERAPEUTICS INC., priority 2021, published 2025)
